From publication PMC7819943, “Rice protein-binding microarrays: a tool to detect cis-acting elements near promoter regions in rice” come the findings set out here.

The list shows a part of the results.

This experiment deals with T1, OsWOX13 (Oryza sativa, UniProt Q5QMM3 1-267).
T1 sequence: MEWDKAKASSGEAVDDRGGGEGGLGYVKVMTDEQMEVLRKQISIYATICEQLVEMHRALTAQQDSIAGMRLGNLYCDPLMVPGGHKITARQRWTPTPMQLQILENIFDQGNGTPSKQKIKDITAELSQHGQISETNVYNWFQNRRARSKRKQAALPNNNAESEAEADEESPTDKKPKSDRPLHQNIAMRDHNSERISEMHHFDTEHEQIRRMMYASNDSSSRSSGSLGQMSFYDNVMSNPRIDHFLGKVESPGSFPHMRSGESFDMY
Put plainly: protein-binding microarray (RPBM); PBS, 2% BSA, 51.3 ng/ul salmon testes DNA, 50 uM zinc acetate, 200 nM TF, 25 C, 1 h; high values mean tight binding. The settings on record: protein: recombinant; tags: N-terminal polyhistidine and DsRed monomer fusion (pET32a); label: CyDye5-dUTP incorporated in the synthesized complementary strand; 3' TTTTT single-stranded linker to array surface; dsDNA, one strand shown. The gist of the method:
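For the binding signal, per-feature fluorescence intensity was read in arbitrary units on an Axon 4000B scanner. Before scanning, a 2% BSA-blocked custom Agilent array made double-stranded with Cy5-dUTP was washed after 1 h at 25 °C with 200 nM protein and 50 µM zinc acetate. The proteins were Ni–NTA-purified transcription factors with N-terminal polyhistidine and DsRed fusions, expressed in E. coli BL21-CodonPlus.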
Regarding “CAAATATAGTGTAATTATATTATAACTATTATGTAACTACCGGAGTCACCTAGTGCAG”, the binding signal was 4600 fluorescence intensity (a.u.). Consider “CTACCCAATCAAATAATATCCCCATCCACATCTTGATTCTCGGAGTCACCTAGTGCAG”, for which the binding signal was 5230 fluorescence intensity (a.u.). As for “GCAAATGTAGGTAAGATTGAGATTGACTTTATGTGGGTCCCGGAGTCACCTAGTGCAG”, the figure is 12500 fluorescence intensity (a.u.); as for “TAATTATTGATTTTCACGCCCATTCTTTATGTCATACTATCGGAGTCACCTAGTGCAG”, 14500 fluorescence intensity (a.u.). Consider “CTGAAAATTAACGAAACAAGAGCACATTGTCTCTACAACTCGGAGTCACCTAGTGCAG”, for which the binding signal was 4630 fluorescence intensity (a.u.). For the sequence “TTCAGGATTGAATTTTAGACTCGATTGCAAATTGAAGGACCGGAGTCACCTAGTGCAG”, the binding signal was 32000 fluorescence intensity (a.u.). As for “ATTTATTATACTAAATTATGTCATATTTTATTTTAGGTTACGGAGTCACCTAGTGCAG”, the figure is 7170 fluorescence intensity (a.u.); as for “AGTATAATTATTGTTTATAGTACAAAGACTTCAAATCTTGCGGAGTCACCTAGTGCAG”, 16600 fluorescence intensity (a.u.). In the case of “TTTAATTTTATGTTTTGATTTTAATCTATATCTCTTCTCTCGGAGTCACCTAGTGCAG”, the binding signal was 22600 fluorescence intensity (a.u.). Then “TGATTATTGATGACGGACGTAAGTTAAAGGATTATATTAACGGAGTCACCTAGTGCAG”, with 3520 fluorescence intensity (a.u.). Consider “GCCTCGTTTGATTGGTCACATGCATGGAAAGAGACTCACACGGAGTCACCTAGTGCAG”, for which the binding signal was 27000 fluorescence intensity (a.u.). For “TAGGGCCCCACTGATTGATCGTGAGCTGATTGCAAGTTAACGGAGTCACCTAGTGCAG”, the binding signal is 23700 fluorescence intensity (a.u.).

Consider “AATATGATTATCTCTTACAAAGCCTATACAACCAAATTACCGGAGTCACCTAGTGCAG”, for which the binding signal was 10600 fluorescence intensity (a.u.).

Regarding “TTAACGGGTGATTAACGATTAATTAATTACTAATGATGTTCGGAGTCACCTAGTGCAG”, the binding signal is 45500 fluorescence intensity (a.u.). As for “CTTGAGCAATTCAATCAAGTCGAGTTATAGTTCTAACTTGCGGAGTCACCTAGTGCAG”, the figure is 17700 fluorescence intensity (a.u.). For the sequence “CAACATTATTGGATTTAGGTTAAATCATTTAGCATCATCTCGGAGTCACCTAGTGCAG”, the binding signal was 3580 fluorescence intensity (a.u.).

For “TGTTGCTGTTGATTAGCTCTCACCTAATTTGTTGTGTATGCGGAGTCACCTAGTGCAG”, the binding signal was 18100 fluorescence intensity (a.u.). For “TTCTTGACTGAAGATACTGTGTGTATGAGTTCTCATCGTACGGAGTCACCTAGTGCAG”, the binding signal was 10700 fluorescence intensity (a.u.). Then “GTAAATACACTAAAATTATATATGTAATTTAGGGACTTACCGGAGTCACCTAGTGCAG”, with 9660 fluorescence intensity (a.u.). On to “CCAGTAATTATTGCAGCAGACATGAAATAATGCAATTGCCCGGAGTCACCTAGTGCAG”, for which the binding signal was 24200 fluorescence intensity (a.u.). As for “TCGGCAATACAAATCAATCAAATCACAAACTTCCTCTGCCCGGAGTCACCTAGTGCAG”, the binding signal is 15300 fluorescence intensity (a.u.).

In the case of “CAAATGTAATTATAGTACAATCGTAGTATAATTGCACTGTCGGAGTCACCTAGTGCAG”, the binding signal was 18900 fluorescence intensity (a.u.). Then “AATAATTGTGGACCAGATCATTTTCGTCCGTTCGAAACTACGGAGTCACCTAGTGCAG”, with 7560 fluorescence intensity (a.u.). As for “TTAATTAATTGCAAGCTAATTAAGCTAGCTGATAACCATACGGAGTCACCTAGTGCAG”, the figure is 35300 fluorescence intensity (a.u.). For the sequence “TTGGATTGAATAAATTTCATAAGAATTTTAAAGGATTTTACGGAGTCACCTAGTGCAG”, the binding signal is 16300 fluorescence intensity (a.u.).

Take “CACTAATTTTGTAAGGTGTGGCTTCTAATATAAGTTGTGCCGGAGTCACCTAGTGCAG”: the binding signal is 18900 fluorescence intensity (a.u.). Consider “ACAAATGGAAGTTAATATAATTAACTCAATTTAGTATCGTCGGAGTCACCTAGTGCAG”, for which the binding signal is 20700 fluorescence intensity (a.u.).

Turning to “CATTAATTATGCTAGAGATTTGTCACTTGTCGACGTCGCTCGGAGTCACCTAGTGCAG”, the binding signal is 36600 fluorescence intensity (a.u.).

In the case of “TAAATTGAGAAAGTCTAGTTTTAGTAATCGACCAATTCGTCGGAGTCACCTAGTGCAG”, the binding signal was 11000 fluorescence intensity (a.u.).

In the case of “TTAAGACATATAATTAGAAATCCGTTATAACAAGCAGGTACGGAGTCACCTAGTGCAG”, the binding signal is 7090 fluorescence intensity (a.u.). “CTAAACTCCCTATCAATTTTCACCACCTCCACCAAACAAGCGGAGTCACCTAGTGCAG”: the binding signal was 6760 fluorescence intensity (a.u.).

Consider “CCAATCCTAAATTTAAATATGTACATACATGATTCGTTACCGGAGTCACCTAGTGCAG”, for which the binding signal is 3730 fluorescence intensity (a.u.). Then “CATGATGTTATCATTAACATATGTGAGTCTGATGAATTATCGGAGTCACCTAGTGCAG”, with 5420 fluorescence intensity (a.u.); and “TCTAACATTATTGATTGTTTCTCTTTTAGTTGAATAGCTACGGAGTCACCTAGTGCAG”, with 35900 fluorescence intensity (a.u.); and “TTCTCAATCAATTACAGCTCTCTTCTATTTAATTCTAAACCGGAGTCACCTAGTGCAG”, with 30900 fluorescence intensity (a.u.). Then “TAGCTGACGGCAATCAGCCCGCCGCCTTTCCAGTCGTTGTCGGAGTCACCTAGTGCAG”, with 3980 fluorescence intensity (a.u.); and “ATCCAATCCAATCCAATCCACGATCCAATTTGGTTGCTGGCGGAGTCACCTAGTGCAG”, with 6960 fluorescence intensity (a.u.). Then “GCTCTAGATGTAATTATGGGAGATATTAATCATAGATTTCCGGAGTCACCTAGTGCAG”, with 7350 fluorescence intensity (a.u.); and “TCCTTTTGTTTTCCTATCTAATTACTTCTTATATCTATTCCGGAGTCACCTAGTGCAG”, with 4090 fluorescence intensity (a.u.). As for “ATAAATTATCCGAGTACTAATACGTTGAATAAGGTACAAACGGAGTCACCTAGTGCAG”, the binding signal was 3520 fluorescence intensity (a.u.). “TTTATAATTTCTAAATCTAAATTAAACAAAACAGTTAATACGGAGTCACCTAGTGCAG”: the binding signal was 3910 fluorescence intensity (a.u.).

Consider “TAAACCATCAAATTGACATGAGTAGCTCGCCAAATCCAAACGGAGTCACCTAGTGCAG”, for which the binding signal is 17500 fluorescence intensity (a.u.).
